Our source for the gametocyte viability values is the supplement of paper PMC12297408.

Molecules are shown by their SMILES. Counter-ions that a name gives are not always drawn. In all, about 1,300 compounds went through this assay and about 40 (3%) showed activity. Some of the results follow.

In the test the test system is Plasmodium falciparum NF54/iGP1_RE9H ulg8 stage V gametocytes. The experiment in a line: gametocyte viability (luciferase signal relative to DMSO control) (% of DMSO control); higher = less gametocytocidal activity, active = 50 or less. The conditions noted are these: exposure time: 72 h. An outline of the steps:
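NF54/iGP1_RE9Hulg8 stage V gametocytes (day 12; ~2.5% gametocytemia, 3% hematocrit) were incubated with compounds at 10 µM or 1 µM final, in one well each, for 72 h at 37 °C in medium with 0.5% Albumax II. Luminescence after D-luciferin addition was read on an IVIS Lumina II. Viability refers to the mean of plate DMSO vehicle wells.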

In the case of `Cc1c(-c2ccccc2)oc2c(C(=O)OCCN3CCCCC3)cccc2c1=O` [Flavoxate hydrochloride], the gametocyte viability reads like this: (concentration: 1 µM) inactive: 92; (concentration: 10 µM) inactive: 87.

As for `CN[C@@H]1[C@@H](O[C@H]2O[C@H](CO)[C@@H](N)[C@H](O)[C@H]2O)OC2C[C@@H](N)[C@@H](O[C@H]3[C@H](O)[C@@H](O)[C@H](N)C[C@@H]3N)OC2[C@@H]1O` (stereo partly specified) [Apramycin], the gametocyte viability by setting is: (concentration: 1 µM) inactive: 87.9; (concentration: 10 µM) inactive: 88.3.

For the compound `CCC[C@@H]1C[C@@H](C(=O)N[C@@H]([C@H]2O[C@H](SC)[C@H](O)[C@@H](O)[C@H]2O)[C@H](C)Cl)N(C)C1` [Clindamycin hydrochloride], the gametocyte viability was inactive: 90.4 (concentration: 1 µM) and inactive: 89.3 (concentration: 10 µM).

In the case of `O=C(N[C@H](CO)[C@H](O)c1ccc([N+](=O)[O-])cc1)C(Cl)Cl` [Chloramphenicol], the gametocyte viability was inactive: 82 (concentration: 1 µM) and inactive: 80 (concentration: 10 µM).

With `Cc1ccc2c(c1)c1c3n2CCNC3CCC1` (stereo unspecified) [Pirlindole mesylate], the gametocyte viability was inactive: 88.8 (concentration: 1 µM) and inactive: 83.2 (concentration: 10 µM).

As to `C=C1/C(=C\C=C2/CCC[C@]3(C)[C@@H]([C@H](C)CCCC(C)C)CC[C@@H]23)C[C@@H](O)C[C@@H]1O` [Alfacalcidol], the gametocyte viability is, setting by setting: (concentration: 1 µM) inactive: 85.7; (concentration: 10 µM) inactive: 78.6.

As to `CCOc1ccc2ccccc2c1C(=O)N[C@@H]1C(=O)N2[C@@H]1SC(C)(C)[C@@H]2C(=O)O` [Nafcillin sodium salt monohydrate], the gametocyte viability runs as follows: (concentration: 1 µM) inactive: 99.2; (concentration: 10 µM) inactive: 95.3.

`CN(C)C/C=C(/c1ccc(Br)cc1)c1cccnc1` [Zimelidine dihydrochloride monohydrate]: the gametocyte viability reads like this: (concentration: 1 µM) inactive: 86.1; (concentration: 10 µM) inactive: 85.7.

Turning to `CC(C)(CO)C(O)C(=O)NCCCO` (stereo unspecified) [Panthenol (D)], the gametocyte viability is, setting by setting: (concentration: 1 µM) inactive: 87.2; (concentration: 10 µM) inactive: 88.7.

With `CCN(CC)CCNC(=O)c1cc(Cl)c(N)cc1OC` [Metoclopramide monohydrochloride], the gametocyte viability runs as follows: (concentration: 1 µM) inactive: 85; (concentration: 10 µM) inactive: 84.7.

With `Cn1cnc2c1c(=O)[nH]c(=O)n2C` [Theobromine], the gametocyte viability is inactive: 88.2 (concentration: 1 µM) and inactive: 92.5 (concentration: 10 µM).

On to `COc1ccccc1Oc1c(NS(=O)(=O)c2ccc(C(C)(C)C)cc2)nc(-c2ncccn2)nc1OCCO` [Bosentan], for which the gametocyte viability reads like this: (concentration: 1 µM) inactive: 82.9; (concentration: 10 µM) inactive: 81.5.

As to `Nc1ccccc1S(N)(=O)=O` [2-Aminobenzenesulfonamide], the gametocyte viability runs as follows: (concentration: 1 µM) inactive: 98; (concentration: 10 µM) inactive: 95.8.

For the compound `CC(C)[N+](C)(CCOC(=O)C1c2ccccc2Oc2ccccc21)C(C)C` [Propantheline bromide], the gametocyte viability by setting is: (concentration: 1 µM) inactive: 95.4; (concentration: 10 µM) inactive: 99.2.

For the compound `CN(C)CCC=C1c2ccccc2COc2ccccc21` [Doxepin hydrochloride], the gametocyte viability was inactive: 88.6 (concentration: 1 µM) and inactive: 92.8 (concentration: 10 µM).

As to `C#CCN[C@@H]1CCc2ccccc21` [Rasagiline], the gametocyte viability (concentration: 1 µM) is inactive: 82.4 and the gametocyte viability (concentration: 10 µM) was inactive: 86.2.

For `COc1ccc(-c2cc(=S)ss2)cc1` [Anethole-trithione], the gametocyte viability by setting is: (concentration: 1 µM) inactive: 81.2; (concentration: 10 µM) inactive: 71.8.

Turning to `O=C(O)c1cn(C2CC2)c2cc(N3CCNCC3)c(F)cc2c1=O` [Ciprofloxacin hydrochloride hydrate], the gametocyte viability runs as follows: (concentration: 1 µM) inactive: 93.9; (concentration: 10 µM) inactive: 92.1.

`C1CCC(C(CC2CCCCN2)C2CCCCC2)CC1` (stereo unspecified) [Perhexiline maleate]: the gametocyte viability by setting is: (concentration: 1 µM) inactive: 83.4; (concentration: 10 µM) inactive: 90.

For the compound `CCc1nc(N)nc(N)c1-c1ccc(Cl)cc1` [Pyrimethamine], the gametocyte viability by setting is: (concentration: 1 µM) inactive: 79; (concentration: 10 µM) inactive: 84.5.

Regarding `CC(=O)[C@@]1(O)CC[C@H]2[C@@H]3C[C@H](C)C4=CC(=O)C=C[C@]4(C)[C@@]3(F)[C@@H](O)C[C@@]21C` [Fluorometholone], the gametocyte viability (concentration: 1 µM) was inactive: 88.8 and the gametocyte viability (concentration: 10 µM) was inactive: 90.4.

On to `CC(C)NCC(O)COc1ccc(CCOCC2CC2)cc1` (stereo unspecified) [Betaxolol hydrochloride], for which the gametocyte viability (concentration: 1 µM) is inactive: 86.3 and the gametocyte viability (concentration: 10 µM) was inactive: 78.7.

For `COc1cc(C(=O)NCc2ccc(OCCN(C)C)cc2)cc(OC)c1OC` [Trimethobenzamide hydrochloride], the gametocyte viability runs as follows: (concentration: 1 µM) inactive: 84.8; (concentration: 10 µM) inactive: 73.9.

For the compound `CCCC1C(=O)N2C(N(C)C)=Nc3ccc(C)cc3N2C1=O` (stereo unspecified) [Azapropazone], the gametocyte viability by setting is: (concentration: 1 µM) inactive: 89.5; (concentration: 10 µM) inactive: 87.5.

On to `Clc1ccc(C(Cn2ccnc2)OCc2ccsc2Cl)c(Cl)c1` (stereo unspecified) [Tioconazole], for which the gametocyte viability by setting is: (concentration: 1 µM) inactive: 86.8; (concentration: 10 µM) inactive: 71.1.

Take `C[C@](N)(Cc1ccc(O)c(O)c1)C(=O)O` [Methyldopa (L,-)]: the gametocyte viability (concentration: 1 µM) is inactive: 82.6 and the gametocyte viability (concentration: 10 µM) is inactive: 83.9.

For the compound `c1cnc(N2CCN(Cc3ccc4c(c3)OCO4)CC2)nc1` [Piribedil hydrochloride], the gametocyte viability was inactive: 92.7 (concentration: 1 µM) and inactive: 92.5 (concentration: 10 µM).

With `CCOC(=O)O[C@]1(C(=O)OCCl)CC[C@H]2[C@@H]3CCC4=CC(=O)C=C[C@]4(C)[C@H]3[C@@H](O)C[C@@]21C` [Loteprednol etabonate], the gametocyte viability by setting is: (concentration: 1 µM) inactive: 88.2; (concentration: 10 µM) inactive: 85.

As for `CCCc1nc2c(C)cc(-c3nc4ccccc4n3C)cc2n1Cc1ccc(-c2ccccc2C(=O)O)cc1` [Telmisartan], the gametocyte viability is inactive: 80 (concentration: 1 µM) and inactive: 88.2 (concentration: 10 µM).

On to `CCCCOC(=O)c1ccc(O)cc1` [Butylparaben], for which the gametocyte viability is, setting by setting: (concentration: 1 µM) inactive: 84.3; (concentration: 10 µM) inactive: 78.7.

Consider `N=C(N)N1CCc2ccccc2C1` [Debrisoquin sulfate], for which the gametocyte viability (concentration: 1 µM) was inactive: 80.3 and the gametocyte viability (concentration: 10 µM) was inactive: 79.7.

As to `CC(=O)/N=c1/sc(S(N)(=O)=O)nn1C` [Methazolamide], the gametocyte viability runs as follows: (concentration: 1 µM) inactive: 80.7; (concentration: 10 µM) inactive: 86.9.

Take `CCCCC1C(=O)N(c2ccccc2)N(c2ccccc2)C1=O` [Phenylbutazone]: the gametocyte viability by setting is: (concentration: 1 µM) inactive: 91; (concentration: 10 µM) inactive: 85.4.

Take `CNCC[C@@H](Oc1ccccc1C)c1ccccc1` [Tomoxetine hydrochloride]: the gametocyte viability runs as follows: (concentration: 1 µM) inactive: 82.6; (concentration: 10 µM) inactive: 87.1.

For `O=C(CCCCC(=O)Nc1c(I)cc(I)c(C(=O)O)c1I)Nc1c(I)cc(I)c(C(=O)O)c1I` [Iodipamide], the gametocyte viability (concentration: 1 µM) is inactive: 92.7 and the gametocyte viability (concentration: 10 µM) was inactive: 95.8.

On to `O=C(O)Cc1cc(I)c(Oc2ccc(O)c(I)c2)c(I)c1` [Tiratricol, 3,3',5-triiodothyroacetic acid], for which the gametocyte viability is, setting by setting: (concentration: 1 µM) inactive: 91; (concentration: 10 µM) inactive: 93.4.

Take `COCCCOc1ccnc(C[S+]([O-])c2nc3ccccc3[nH]2)c1C` (stereo unspecified) [Rabeprazole Sodium salt]: the gametocyte viability is inactive: 83.8 (concentration: 1 µM) and inactive: 80.3 (concentration: 10 µM).

Turning to `CC(=O)OCC(=O)[C@@]12OC3(CCCC3)O[C@@H]1C[C@H]1[C@@H]3CCC4=CC(=O)C=C[C@]4(C)[C@@]3(F)[C@@H](O)C[C@@]12C` [Amcinonide], the gametocyte viability is inactive: 93.1 (concentration: 1 µM) and inactive: 92.1 (concentration: 10 µM).

As for `N=C(N=C(N)N)N1CCOCC1` [Moroxidine hydrochloride], the gametocyte viability by setting is: (concentration: 1 µM) inactive: 83.9; (concentration: 10 µM) inactive: 87.9.

Consider `Cc1c(F)c(N2CCNC(C)C2)cc2c1c(=O)c(C(=O)O)cn2C1CC1` (stereo unspecified) [Grepafloxacin], for which the gametocyte viability (concentration: 1 µM) is inactive: 93.9 and the gametocyte viability (concentration: 10 µM) was inactive: 95.3.

For the compound `O=C(Nc1ccccc1)OCC(CN1CCCCC1)OC(=O)Nc1ccccc1` (stereo unspecified) [Diperodon hydrochloride], the gametocyte viability by setting is: (concentration: 1 µM) inactive: 88.6; (concentration: 10 µM) inactive: 91.5.

For `CCCC(=O)Nc1ccc(OCC(O)CNC(C)C)c(C(C)=O)c1` (stereo unspecified) [Acebutolol hydrochloride], the gametocyte viability by setting is: (concentration: 1 µM) inactive: 99.1; (concentration: 10 µM) inactive: 91.7.

As for `CN1[C@@H]2CC[C@H]1C[C@@H](OC(c1ccccc1)c1ccccc1)C2` [Benztropine mesylate], the gametocyte viability by setting is: (concentration: 1 µM) inactive: 85.2; (concentration: 10 µM) inactive: 88.5.

For `CC(=O)Nc1ccc(OCC(O)CNC(C)C)cc1` (stereo unspecified) [Practolol], the gametocyte viability is inactive: 94.9 (concentration: 1 µM) and inactive: 88.3 (concentration: 10 µM).

In the case of `Cc1cccc(C)c1NC(=O)CN1CCN(CCCC(c2ccc(F)cc2)c2ccc(F)cc2)CC1` [Lidoflazine], the gametocyte viability is inactive: 80.9 (concentration: 1 µM) and inactive: 86.1 (concentration: 10 µM).

As to `CC(=O)O[C@]1(C(C)=O)CC[C@H]2[C@@H]3C=C(C)C4=CC(=O)CC[C@]4(C)[C@H]3CC[C@@]21C` [Megestrol acetate], the gametocyte viability reads like this: (concentration: 1 µM) inactive: 93.8; (concentration: 10 µM) inactive: 96.9.

As to `Nc1nnc(-c2cccc(Cl)c2Cl)c(N)n1` [Lamotrigine], the gametocyte viability reads like this: (concentration: 1 µM) inactive: 90.9; (concentration: 10 µM) inactive: 96.5.

`CC[C@@]1(O)C(=O)OCc2c1cc1n(c2=O)Cc2cc3c(CN(C)C)c(O)ccc3nc2-1` [Topotecan]: the gametocyte viability runs as follows: (concentration: 1 µM) inactive: 82.2; (concentration: 10 µM) inactive: 76.8.

For `Clc1cc(Cl)c(OCC#CI)cc1Cl` [Haloprogin], the gametocyte viability reads like this: (concentration: 1 µM) inactive: 82.8; (concentration: 10 µM) inactive: 63.6.

Consider `Nc1nc(=O)[nH]cc1F` [Flucytosine], for which the gametocyte viability is inactive: 84.3 (concentration: 1 µM) and inactive: 89.3 (concentration: 10 µM).

For the compound `CCOCCn1c(N2CCCN(C)CC2)nc2ccccc21` [Emedastine], the gametocyte viability is inactive: 93.5 (concentration: 1 µM) and inactive: 94.4 (concentration: 10 µM).

Regarding `Cc1cccn2c(=O)c(-c3nnn[nH]3)cnc12` [Pemirolast potassium], the gametocyte viability runs as follows: (concentration: 1 µM) inactive: 80.6; (concentration: 10 µM) inactive: 84.7.

Take `CC[C@H](C)C(=O)O[C@H]1C[C@H](O)C=C2C=C[C@H](C)[C@H](CC[C@@H](O)C[C@@H](O)CC(=O)O)[C@H]21` [Pravastatin]: the gametocyte viability reads like this: (concentration: 1 µM) inactive: 99.2; (concentration: 10 µM) inactive: 94.8.

Consider `CC(C)(C)NCC(O)COc1cccc2c1CC(O)C(O)C2` (stereo unspecified) [Nadolol], for which the gametocyte viability was inactive: 88.2 (concentration: 1 µM) and inactive: 80.7 (concentration: 10 µM).

Take `CC(=O)NC[C@H]1CN(c2ccc(N3CCOCC3)c(F)c2)C(=O)O1` [Linezolid]: the gametocyte viability runs as follows: (concentration: 1 µM) inactive: 97.4; (concentration: 10 µM) inactive: 95.5.

Turning to `Cc1nccn1CC1CCc2c(c3ccccc3n2C)C1=O` (stereo unspecified) [Ondansetron Hydrochloride], the gametocyte viability reads like this: (concentration: 1 µM) inactive: 96.9; (concentration: 10 µM) inactive: 90.8.

`COc1ccc2c(c1)c(CC(=O)OCC(=O)O)c(C)n2C(=O)c1ccc(Cl)cc1` [Acemetacin]: the gametocyte viability was inactive: 87.6 (concentration: 1 µM) and inactive: 85.7 (concentration: 10 µM).

In the case of `Cc1cccc(Nc2ccncc2S(=O)(=O)NC(=O)NC(C)C)c1` [Torsemide], the gametocyte viability was inactive: 91.2 (concentration: 1 µM) and inactive: 89.6 (concentration: 10 µM).
